The list shows a part of the results.
target: T1, OsWOX13 (Oryza sativa, UniProt Q5QMM3 1-267); assay: protein-binding microarray (RPBM); PBS, 2% BSA, 51.3 ng/ul salmon testes DNA, 50 uM zinc acetate, 200 nM TF, 25 C, 1 h; high values mean tight binding; settings: protein: recombinant; tags: N-terminal polyhistidine and DsRed monomer fusion (pET32a); label: CyDye5-dUTP incorporated in the synthesized complementary strand; 3' TTTTT single-stranded linker to array surface; dsDNA, one strand shown
T1 sequence: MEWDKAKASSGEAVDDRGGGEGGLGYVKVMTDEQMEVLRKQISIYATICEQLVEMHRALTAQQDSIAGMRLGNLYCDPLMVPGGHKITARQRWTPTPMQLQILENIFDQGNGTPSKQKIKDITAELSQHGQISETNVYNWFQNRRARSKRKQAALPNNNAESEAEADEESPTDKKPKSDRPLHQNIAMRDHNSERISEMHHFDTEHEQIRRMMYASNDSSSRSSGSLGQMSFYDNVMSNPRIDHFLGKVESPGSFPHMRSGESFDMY
Outline: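 Transcription factors were each fused at the N-terminus to a polyhistidine tag plus DsRed and expressed in E. coli BL21-CodonPlus before Ni–NTA purification. Binding to a double-stranded custom Agilent array was carried out with 200 nM protein at 25 °C for 1 h in PBS, 2% BSA, salmon testes DNA and 50 µM zinc acetate. The binding signal is per-feature fluorescence intensity, in arbitrary units, on an Axon 4000B scanner.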

Sequence | binding signal
TCAAGTGATTGCTCCATTCATAACTTTTCATTTGAACTGACGGAGTCACCTAGTGCAG | 16700 fluorescence intensity (a.u.)
CCTCTGATTTATGCGTAATTAGATCTAGGTTCCCCACAAACGGAGTCACCTAGTGCAG | 43600 fluorescence intensity (a.u.)
GCAGCTGACAGATGGAGGGATGTTCAGGATGTCCGGAGAACGGAGTCACCTAGTGCAG | 3250 fluorescence intensity (a.u.)
TCTGACCTGTATACTAATTTATGACCATATACTTAATCAACGGAGTCACCTAGTGCAG | 5380 fluorescence intensity (a.u.)
GTAAATTCACTAGTGACAATGATGGAAAATGTAAGGGGAACGGAGTCACCTAGTGCAG | 3650 fluorescence intensity (a.u.)
ATGATTATGTGGGTGCTTATGGAGGTATCCCTGAGACTTTCGGAGTCACCTAGTGCAG | 4580 fluorescence intensity (a.u.)
CATGCCAGTTAATTAGTAGTAGTATTGATGATGCATCTTACGGAGTCACCTAGTGCAG | 8450 fluorescence intensity (a.u.)
CGTGGTTGATTATCACGTGTCCATTAGGGTCCAGCTTATTCGGAGTCACCTAGTGCAG | 17000 fluorescence intensity (a.u.)
TTGATTGAGAAAATCCCTTAAATTATAGAACGGAGGAGTACGGAGTCACCTAGTGCAG | 47000 fluorescence intensity (a.u.)
AAATGTGATTGTGCTTACTTAAAGCCGTAAGCATTGACTACGGAGTCACCTAGTGCAG | 7860 fluorescence intensity (a.u.)
GCCTGATTATAGACAATAAAGTTGGCGACGTTCCACGTCCCGGAGTCACCTAGTGCAG | 22900 fluorescence intensity (a.u.)
AATTAATTAAGGTGATATGGATTAATGAGAGAAGAAAATGCGGAGTCACCTAGTGCAG | 17700 fluorescence intensity (a.u.)
ACTGATAGATGTTAGTATCAACAAACTCCAAGGTGTGCTACGGAGTCACCTAGTGCAG | 33300 fluorescence intensity (a.u.)
GCTGACGATTTATAACTGGTTTTAATACTGGGTTTTGAACCGGAGTCACCTAGTGCAG | 12100 fluorescence intensity (a.u.)
CACCATAACTAATTAACAAGCCACCTATTTCCTCTTGACACGGAGTCACCTAGTGCAG | 10800 fluorescence intensity (a.u.)
TATAAATTATGGACATGTTTAGACTAAGAACTGATCGAGTCGGAGTCACCTAGTGCAG | 15000 fluorescence intensity (a.u.)
TTGGATGAAATTTGTTATCAGAATTTGCGAAATTTTCATCCGGAGTCACCTAGTGCAG | 4630 fluorescence intensity (a.u.)
CAACACACGGTTTGATTAACATATCTAACGGAAACCTGACCGGAGTCACCTAGTGCAG | 3930 fluorescence intensity (a.u.)
CTTGACACGAGAAATTCTGTCAAACACTCAATCAGCAGCACGGAGTCACCTAGTGCAG | 11400 fluorescence intensity (a.u.)
AGTTAATTGACAACTTATATTATACGATGCCATCACTCTACGGAGTCACCTAGTGCAG | 40200 fluorescence intensity (a.u.)
CTCAATAATGAATTAATGATCTTGAATTTGCTGATTTCAACGGAGTCACCTAGTGCAG | 11500 fluorescence intensity (a.u.)

Sequence | binding signal
TTGTATCTGGTTTTGTGATTGAAGGATGAAAATCGGATTCCGGAGTCACCTAGTGCAG | 12500 fluorescence intensity (a.u.)
TTAGCATATGATTATTTGAATATTAACTATCTGTTAATATCGGAGTCACCTAGTGCAG | 3480 fluorescence intensity (a.u.)
TGAACTTTGATCACTAATTAGTCTTAAAATAGTTCGATGGCGGAGTCACCTAGTGCAG | 13500 fluorescence intensity (a.u.)
GACAACTTAATTAGTTAATTAACTGACGGCTGTGCAGAGACGGAGTCACCTAGTGCAG | 39900 fluorescence intensity (a.u.)
CAGCAAATATATTGTTTAATTTAATCAATTTGCCTGCAAACGGAGTCACCTAGTGCAG | 8180 fluorescence intensity (a.u.)
CGCTTCCTGTTGTGATTATGTAATCTTGTATTCTTGTTGACGGAGTCACCTAGTGCAG | 7400 fluorescence intensity (a.u.)
GTGATTGGATCTGTAATTATCAATCTCTCTCTCTCTCTCTCGGAGTCACCTAGTGCAG | 64600 fluorescence intensity (a.u.)
TGTTGAATGTTGATAGATTTATGCGATAACTCGGTATAGGCGGAGTCACCTAGTGCAG | 14600 fluorescence intensity (a.u.)
ATAATAGATAAGTTAATAGATTTTGAAGTCAAAGTTTCTGCGGAGTCACCTAGTGCAG | 25400 fluorescence intensity (a.u.)
CCTGATTATTTGGTCTCGAATGGGTTCACATTCTTTATCTCGGAGTCACCTAGTGCAG | 37600 fluorescence intensity (a.u.)
ACATTAATCATAACATCATATGAATCAAGCATGCTCTAGCCGGAGTCACCTAGTGCAG | 6430 fluorescence intensity (a.u.)
TAACCTTAACCTGTTAATTAACAACAAAATTTAGATTCTACGGAGTCACCTAGTGCAG | 14800 fluorescence intensity (a.u.)
ATCATAAATTATAAATTATTGTTCAGATTTATAGGTTTAGCGGAGTCACCTAGTGCAG | 50000 fluorescence intensity (a.u.)
CTGAGGACACTTAATGATTGATGCTCATAATATATTGTTTCGGAGTCACCTAGTGCAG | 17300 fluorescence intensity (a.u.)
TAATAATTTACGCGCCATCCTGCTCCTATATATACTCATCCGGAGTCACCTAGTGCAG | 12200 fluorescence intensity (a.u.)
GCCGAGTTGACACAATTAACACCAAGCAATGGTCATTAGCCGGAGTCACCTAGTGCAG | 7470 fluorescence intensity (a.u.)
CCTGTAGTCCAATCATTGCTTCTAGAGGCTCAAGGCCTCTCGGAGTCACCTAGTGCAG | 3860 fluorescence intensity (a.u.)
AATCACTAATTAGTGAGCAGATCATCCATCAACATAGATACGGAGTCACCTAGTGCAG | 30700 fluorescence intensity (a.u.)
CGAAATTACAAATTTATAGATTCAAGCTATGTTATTGCACCGGAGTCACCTAGTGCAG | 28800 fluorescence intensity (a.u.)
TGTAATCAAAACTCTGATTTCTTATAATATAATGATGTCCCGGAGTCACCTAGTGCAG | 8740 fluorescence intensity (a.u.)
AACTAGTAATCAACTAATCTTGATCAGATCCTCCTATAAACGGAGTCACCTAGTGCAG | 8190 fluorescence intensity (a.u.)

Sequence | binding signal
CTTCTCATGTATTGATTATGGTCAATTGGTCACTCCTCCCCGGAGTCACCTAGTGCAG | 6570 fluorescence intensity (a.u.)
TATCACTATAATAAACATAATTTAACGACATATTTATAGGCGGAGTCACCTAGTGCAG | 4850 fluorescence intensity (a.u.)
AATGACGGCTTAATTAGGCTCAAAAGATTCGTCTCGCGGTCGGAGTCACCTAGTGCAG | 14200 fluorescence intensity (a.u.)
GGCAAATTGTCAGTTGGTATAACTAACTAATAAGGTACCACGGAGTCACCTAGTGCAG | 5660 fluorescence intensity (a.u.)
TTGGATTAGAATTTAATTTGAAGACGACATCCATTGGATACGGAGTCACCTAGTGCAG | 28700 fluorescence intensity (a.u.)
CTTTAATTACCACCCGATCTCACCAACAAGCGGGGCAGCTCGGAGTCACCTAGTGCAG | 20400 fluorescence intensity (a.u.)
AACTTTCATTCATTCAATCAATTTACAGAATGGGGTCCATCGGAGTCACCTAGTGCAG | 26900 fluorescence intensity (a.u.)
TGAAATTGGTTGGTTTGGATACTTTGGGGTGCCAAGGTCACGGAGTCACCTAGTGCAG | 7220 fluorescence intensity (a.u.)
ATGATTTCTTCATTTCAAATCAGTTCTGGTCCCCAAATAACGGAGTCACCTAGTGCAG | 3830 fluorescence intensity (a.u.)
GGGTAAATTGGAACAATGTCATTATAATTTTGCAAAGTTTCGGAGTCACCTAGTGCAG | 21400 fluorescence intensity (a.u.)
ATCGATTAACAGGTTAAATTGGAGCGTCACGGGCTAGTTCCGGAGTCACCTAGTGCAG | 31800 fluorescence intensity (a.u.)
CTTACCTGCTTTAATTTATGCATAATGTTGCTTCATAAACCGGAGTCACCTAGTGCAG | 6090 fluorescence intensity (a.u.)
CGCCGATGACAGACGGCTGCAAGCGCGCCAAGCGGGTGTTCGGAGTCACCTAGTGCAG | 4040 fluorescence intensity (a.u.)
TGGAACAGGTATCAATCAAAGGTGGTGGACTAGGTAACTTCGGAGTCACCTAGTGCAG | 17400 fluorescence intensity (a.u.)
TTGATCTACTCGATTGATATTTAGGGGAAGCAGACACAAACGGAGTCACCTAGTGCAG | 3250 fluorescence intensity (a.u.)
ATTCTAATTTTGATAGATAATTTCACTTGTTTTACTCCTACGGAGTCACCTAGTGCAG | 25000 fluorescence intensity (a.u.)
TATATATATATATATATATATATATAGTTTCTTTATATATCGGAGTCACCTAGTGCAG | 5160 fluorescence intensity (a.u.)
GTTTCAATCTCCATTTCTCAATCCTTCTTGAGCACCATCTCGGAGTCACCTAGTGCAG | 7230 fluorescence intensity (a.u.)
ATTAATTAATCACCAAATACTAATGTCAACTCTGCAAGGACGGAGTCACCTAGTGCAG | 35000 fluorescence intensity (a.u.)
TTAATTTGCTATTTATATGATTATAATATACCATCCCCGACGGAGTCACCTAGTGCAG | 20500 fluorescence intensity (a.u.)
TTTTGCAAATTTGTAATAAATTAAAATTTTATTAACCATACGGAGTCACCTAGTGCAG | 19800 fluorescence intensity (a.u.)

Sequence | binding signal
AGTCAGATCGTAAATCACTATAAATTATAGCAGCAGCACGCGGAGTCACCTAGTGCAG | 9600 fluorescence intensity (a.u.)
CCTCCCTAATTAGTACTCCACTCCACAAAACACCTCCTTCCGGAGTCACCTAGTGCAG | 17900 fluorescence intensity (a.u.)
CATTTGATTGTATTTCCATCTTATTCTTAATCTGTATAAGCGGAGTCACCTAGTGCAG | 32100 fluorescence intensity (a.u.)
ATCCGAACATGAAGGATTGGCAATCATATTCTCATGGTGACGGAGTCACCTAGTGCAG | 9570 fluorescence intensity (a.u.)
CTCACCAATTGATTTTATTCCTTGTTAAGGACGTAGGATTCGGAGTCACCTAGTGCAG | 8560 fluorescence intensity (a.u.)
CAAAATGATTTGGTGAATCTAGCCAGCACATACCAATACGCGGAGTCACCTAGTGCAG | 16800 fluorescence intensity (a.u.)
GTTAGAGGTAATTAGATGTAAATTGAATGTGCAGTATAATCGGAGTCACCTAGTGCAG | 30500 fluorescence intensity (a.u.)
ACTGTAATTTTAATTATATTATTGTTACACTATAATTGCACGGAGTCACCTAGTGCAG | 41800 fluorescence intensity (a.u.)
ACTTTAATTACATTTCTTGCTGCAGTTGCACCGGCATGAGCGGAGTCACCTAGTGCAG | 31600 fluorescence intensity (a.u.)
AATTGACAAAGATGAAACACATGTGGACTGGACTACTCGACGGAGTCACCTAGTGCAG | 3660 fluorescence intensity (a.u.)
TGAGGAGCCATGATTACGGAGTAATTTCCATGGTCACAGTCGGAGTCACCTAGTGCAG | 4070 fluorescence intensity (a.u.)
ATACAATTAATTATGGTATCTTTTCCATTAAATTATTACCCGGAGTCACCTAGTGCAG | 14100 fluorescence intensity (a.u.)
GCAGTAATTTTGACGAAATTCGTTGAAGAATGATAGCGGTCGGAGTCACCTAGTGCAG | 16400 fluorescence intensity (a.u.)
TAAATTACATATGTAATTTTAGTGTATTTACAATGTAAGTCGGAGTCACCTAGTGCAG | 14700 fluorescence intensity (a.u.)
TATATGTCTAATAATTTAACGTTTTACAAATTAGATAAAACGGAGTCACCTAGTGCAG | 7300 fluorescence intensity (a.u.)
TTGATAAACACCGGACACGCAAATTAATATTTGGTGCCGCCGGAGTCACCTAGTGCAG | 3350 fluorescence intensity (a.u.)
TTTATAATTAATTTTCAAACATCCGATGTGATAGGAACTTCGGAGTCACCTAGTGCAG | 38000 fluorescence intensity (a.u.)
CTAAATTAGTGTTTAAATACAGAGACTAAGAGCACCCGCACGGAGTCACCTAGTGCAG | 18200 fluorescence intensity (a.u.)
AGAAGAAGCGGTGATTGCTAGCTAGCTAGCGAGCTCCGTCCGGAGTCACCTAGTGCAG | 5170 fluorescence intensity (a.u.)
ATTTGTCTAGTACTCCTAATTGGTACATCGACGATCTGCGCGGAGTCACCTAGTGCAG | 6670 fluorescence intensity (a.u.)
GATTATTACTAATCAATTTCACTAGTGTTAATGAAATATGCGGAGTCACCTAGTGCAG | 12400 fluorescence intensity (a.u.)
